In all, about 310,000 compounds went through this assay and about 14,000 (4.5%) showed an effect of 50% or more. Effects have a minus sign here. The list shows a part of the results.
Biological target: human ether-à-go-go-related gene (hERG) potassium channel (human, UniProt Q12809)
Assay: primary screen, population patch clamp on CHO cells stably expressing hERG
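Note: peak tail current of the secondary pulse compared with the same well before compound.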

Chain of human ether-à-go-go-related gene (hERG) potassium channel (Q12809 whole entry, looked up): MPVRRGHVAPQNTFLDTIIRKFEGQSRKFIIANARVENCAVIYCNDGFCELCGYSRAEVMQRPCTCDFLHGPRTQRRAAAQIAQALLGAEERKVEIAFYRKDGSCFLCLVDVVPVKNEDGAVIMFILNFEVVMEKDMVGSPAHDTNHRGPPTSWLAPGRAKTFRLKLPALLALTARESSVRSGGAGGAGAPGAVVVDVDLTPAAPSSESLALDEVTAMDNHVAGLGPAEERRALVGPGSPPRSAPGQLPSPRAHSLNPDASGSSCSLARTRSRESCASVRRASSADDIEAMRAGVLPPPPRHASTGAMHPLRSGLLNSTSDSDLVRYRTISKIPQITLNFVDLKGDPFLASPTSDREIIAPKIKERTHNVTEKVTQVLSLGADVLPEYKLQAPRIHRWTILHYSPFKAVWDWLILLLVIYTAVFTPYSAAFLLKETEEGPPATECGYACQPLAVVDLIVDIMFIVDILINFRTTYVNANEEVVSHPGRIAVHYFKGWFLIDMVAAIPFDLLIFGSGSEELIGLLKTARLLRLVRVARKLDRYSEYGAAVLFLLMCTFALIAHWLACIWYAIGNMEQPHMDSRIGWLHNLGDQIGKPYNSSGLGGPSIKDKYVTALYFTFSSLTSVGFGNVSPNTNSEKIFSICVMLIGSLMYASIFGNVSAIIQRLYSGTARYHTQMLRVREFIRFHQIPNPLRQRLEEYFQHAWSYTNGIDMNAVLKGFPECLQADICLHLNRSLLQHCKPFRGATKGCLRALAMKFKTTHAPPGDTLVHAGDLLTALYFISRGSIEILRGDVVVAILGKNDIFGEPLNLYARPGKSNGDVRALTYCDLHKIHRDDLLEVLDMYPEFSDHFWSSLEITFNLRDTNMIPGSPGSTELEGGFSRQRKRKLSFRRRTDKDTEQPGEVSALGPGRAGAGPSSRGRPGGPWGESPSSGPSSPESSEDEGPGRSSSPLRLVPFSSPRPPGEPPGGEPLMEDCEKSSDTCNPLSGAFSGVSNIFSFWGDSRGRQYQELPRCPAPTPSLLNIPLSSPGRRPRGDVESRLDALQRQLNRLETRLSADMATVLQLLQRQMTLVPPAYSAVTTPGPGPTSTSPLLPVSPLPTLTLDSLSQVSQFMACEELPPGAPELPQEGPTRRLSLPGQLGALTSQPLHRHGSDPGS

| Compound | hERG current change (%, negative = inhibition) at 10uM [%] |
| --- | --- |
| COc1ccccc1NS(=O)(=O)c1cccc(NC(=O)c2nn(C)c(=O)c3ccccc23)c1 | -7.97 |
| CN(C(=O)C1CCCO1)c1nnc(-c2ccncc2)s1 (stereo not drawn) | 4.14 |
| CN1CCN(CC#CC(C)(O)C2CC3C=CC2C3)CC1.Cl (stereo not drawn) | 1.53 |
| O=C1NC(c2ccccc2Cl)=N/C1=C/c1ccco1 | -8.95 |
| Cc1ccccc1OCC(=O)Nc1ccccc1C(=O)N1CCCCC1 | -19.3 |
| COc1cccc(C2C(C#N)=C(N)N(N(C)C)C3=C2C(=O)CCC3)c1 (stereo not drawn) | -4.26 |
| Cc1cc(C)c(S(=O)(=O)Nc2ccc(C(N)=O)cc2)c(C)c1 | 4.13 |
| CN(C)c1ccc(NC(=O)c2ccncc2)c2ccccc12 | -3.02 |
| O=c1[nH]nc(CNc2ccc(Cl)cc2Cl)c2ccccc12 | 11.5 |
| NS(=O)(=O)c1ccc(NNC(=O)c2cccs2)cc1 | 16.3 |
| CCOc1ccc(N(CC(=O)Nc2cccc(F)c2)S(=O)(=O)c2c(C)noc2C)cc1 | -5.67 |
| COCCN(C/C=C/c1ccccc1)C/C=C/c1ccccc1 | -69.4 |
| Cc1ccc2sc(NC(=O)c3cccc(N4C(=O)CCC4=O)c3)nc2c1C | 13.3 |
| COc1ccnc(CN(C)C(=O)C2CCC(=O)N(CCN(C)C)C2)c1 (stereo not drawn) | 17.5 |
| Cc1nnc(SCC2CCCO2)n1-c1ccccc1 (stereo not drawn) | 9.97 |
| CCc1ccccc1NC(=O)CN(C)C(=O)CSc1nn(-c2ccccc2)c(=S)s1 | -9.72 |
| COc1cc(C(=O)N2CCN(C(=O)CC(C)C)CC2)cc(OC)c1OC | -0.249 |
| O=C(O)CCN1C(=O)c2ccc(NC(=O)CSCc3ccccc3)cc2C1=O | -7.19 |
| COC(=O)[C@@H]1C[C@@H](c2ccccc2)[C@H](C)C1(C)C | 1 |
| Cc1ccc(S(=O)(=O)N2c3cc(C)ccc3OCC2C(C)(C)C)cc1 (stereo not drawn) | 2.79 |
| COc1ccc(Nc2nnc(SCC(=O)NC(=O)Nc3ccc4c(c3)OCCO4)s2)cc1 | 15.7 |
| COc1ccc(N2C(=O)/C(=C/c3ccc([N+](=O)[O-])cc3)N=C2C)c(OC)c1 | 9.74 |
| C[C@H]1CCC[C@@H](O)CCC/C=C/c2cc(O)cc(O)c2C(=O)O1 | 2.04 |

| Compound | hERG current change (%, negative = inhibition) at 10uM [%] |
| --- | --- |
| Cc1cc(C(=O)OCC(=O)N2c3ccccc3CC2C)c(C)o1 (stereo not drawn) | 7.55 |
| S=C(Nc1ccc2[nH]ccc2c1)NC1CCCCC1 | 0.518 |
| CCOC(=O)C1(Cc2cccc(Cl)c2)CCCN(C(=O)c2cccc(C)n2)C1 (stereo not drawn) | -1.76 |
| C/C(=C\C(=O)O)C12CC3CC(CC(C3)C1)C2 | 6.61 |
| O.O=C(NC12CC3CC(CC(C3)C1)C2)c1cncc(O)c1 | 22.4 |
| COc1ccc(C(=O)Nc2cc(C)c(NC(=O)c3ccccc3OC)cn2)cc1 | -6.52 |
| COC1=CCC2([N+](=O)[O-])CN(C)CC1([N+](=O)[O-])C2 (stereo not drawn) | 10.3 |
| CCN(CC)S(=O)(=O)c1ccc2c(c1)nc(SC(C)C(=O)NCC1CCCO1)n2CC (stereo not drawn) | -1.12 |
| Cc1cc(C(=O)Nc2ccc(Cl)cc2)on1 | 39.9 |
| O=C(NCCC1=CCCCC1)C(=O)NCc1ccccc1 | 9.56 |
| Cc1nonc1OC(C)CNCCNc1ccc([N+](=O)[O-])cc1.Cl (stereo not drawn) | -55.2 |
| COc1ccc(CNS(=O)(=O)c2ccc3c(c2)NC(=O)CS3)cc1 | -9.78 |
| CCOc1ccccc1C(=O)n1nc(C)cc1C | 15.6 |
| CCCOc1ccccc1C1NC(=O)NC(C)=C1C(=O)OCc1ccccc1 (stereo not drawn) | 6.23 |
| Cc1ccc(S(=O)(=O)N(CC(=O)N/N=C\c2cccs2)c2cccc3cccnc23)cc1 | -10.4 |
| CCOc1c(Nc2ccc(C(C)C)cc2)c(=O)c1=O | -23.5 |
| CC(C)Oc1ccc(C(CC(=O)O)Cc2ccccc2)cc1 (stereo not drawn) | 19.2 |
| Cc1cc(-n2nc(C)cc2C)nc(N)n1 | -3.91 |
| COc1ccc(NC(=O)CCS(=O)(=O)c2ccc3c(c2)oc(=O)n3C)cc1 | 30.3 |
| Cc1csc(NC(=O)c2cccc(S(=O)(=O)N3CCN(C)CC3)c2)n1 | -1.48 |
| O=C1NCCNC(=O)c2ccccc2OCCOc2ccccc21 | -6.78 |
| COC(=O)C(C)NC(=O)c1ccc(C(C)(C)C)cc1 (stereo not drawn) | -3.6 |
